# The whole screen tested about 360,000 compounds, of which about 7,500 (2.1%) were called active. The shares of active, inactive and inconclusive entries below differ from those in the screen. The call rests on the fitted dose curve; in most records, active means well fitted cell-killing curve with a large enough effect; inconclusive means small, poorly fitted or top-dose-only effect, or effect the other way, or another doubt; inactive means no such curve, though single readings can be large or run the other way. Potencies of inconclusive entries are left out as doubtful fits.
# Assay: qHTS for induction of synthetic lethality in tumor cells producing 2HG: qHTS for the HT-1080-IDH1KD cell line;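 on activity, negative = toxicity: 0% = DMSO wells and -100% = cell-free medium wells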
# Conditions: HT-1080 IDH1 knockdown viability, ATP luminescence, 48 h; activity, negative = toxicity: at 46.1 µM (top of the series) unless noted
# In short: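 Cytotoxicity counter-line: IDH1KD HT-1080, 48 h, CellTiter-Glo. Curves classed by r2, magnitude and activity.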
# Potency means the concentration at half of the fitted maximal effect; tags describe the fitted curve by direction and shape.
SMILES,Potency,"activity, negative = toxicity"
O=C(NCc1cccs1)c1noc2c1CCCCC2,"inconclusive [cytotoxic, single point]",
O=C(NCCc1ccc(Cl)cc1)Nc1cccc(Cl)c1,"inconclusive [cytotoxic, single point]",
COc1ccccc1-c1cc(C(F)(F)F)nc(S(=O)(=O)CCCC(=O)N2CCOCC2)n1,active: 16.4 µM,
O=C(CSc1ccc(-c2nc3ccccc3[nH]2)cn1)Nc1ccc(S(=O)(=O)NC2CC2)cc1,inactive,
CC1(C)SC2C(C(=O)O)N=C(Cc3ccccc3)N2C1C(=O)O (stereo unspecified),inactive,
CC[C@H]1CN2CCc3cc(OC)c(OC)cc3[C@@H]2C[C@@H]1C[C@H]1NCCc2cc(OC)c(OC)cc21,active: 0.13 µM,
COc1ccc(-c2coc3cc4oc(=O)cc(-c5ccccc5)c4cc23)cc1F,active: 3.66 µM,
Cc1cc(Cl)ccc1C(O)c1ncc(-c2ccc(F)cc2)[nH]1 (stereo unspecified),active: 20.6 µM,
Cn1c(SCC(=O)N/N=C/c2ccc([N+](=O)[O-])s2)nnc1-c1ccc(Cl)cc1,"inconclusive [cytotoxic, single point]",
COc1cc(C2c3cc4c(cc3OC(N3CCOCC3)C2C)OCO4)cc(OC)c1OC(C)=O (stereo unspecified),"inconclusive [cytotoxic, partial curve]",
Cc1cc(C)n(-c2cc(N3CCN(C(=O)c4ccc(C(C)(C)C)cc4)CC3)ccc2[N+](=O)[O-])n1,"inconclusive [cytotoxic, single point]",
COC(=O)CC1C(=O)NCCN1C(=O)c1ccc(Cl)cc1 (stereo unspecified),inactive,
Cn1c(/C=C/c2ccc(Cl)cc2)nc2ccccc2c1=O,"inconclusive [cytotoxic, partial curve]",
O=C(Nc1ccccc1)O/N=C/c1ccccc1Cl,"inconclusive [rising, single point]",
Cc1onc(-c2ccccc2Cl)c1C(=O)O/N=C(\N)c1ccccc1,"inconclusive [cytotoxic, single point]",
Cc1ccc2nc(COC(=O)CNC(=O)c3ccccc3)cn2c1,,inconclusive: 1.98% [cytotoxic]
OCCNCc1c(OCc2ccc(Cl)cc2)ccc2ccccc12,"inconclusive [cytotoxic, single point]",
O=C(NNC(=S)NC(=O)c1ccccc1)c1ccc(O)cc1,"inconclusive [cytotoxic, partial curve]",
O=C(CCn1cnc2ccccc2c1=O)Nc1nc2c(s1)CCCC2,"inconclusive [cytotoxic, single point]",
CCc1ccc(C(C)NC(=S)NCc2ccc(F)cc2)cc1 (stereo unspecified),"inconclusive [cytotoxic, single point]",
OC[C@@H]1CN(Cc2ccc(-c3ccccc3)cc2)C[C@H](n2cnc3c(NCc4ccc(F)cc4)ncnc32)O1,"inconclusive [cytotoxic, single point]",
CC12COC3(P(=O)(c4ccccc4)c4ccccc4)CC1CCC23CP(=O)(c1ccccc1)c1ccccc1 (stereo unspecified),"inconclusive [cytotoxic, single point]",
OCCN1CCN(c2nc(-c3ccccc3O)nc3ccccc23)CC1,"inconclusive [cytotoxic, single point]",

SMILES,Potency,"activity, negative = toxicity"
O=C(CC(=O)c1ccccc1)Nc1ccc([N+](=O)[O-])cc1,inactive,
O=C(c1cc(COc2ccc3ncccc3c2)on1)N1CCCCCC1,"inconclusive [cytotoxic, partial curve, poor fit]",
Cc1cc2nc(/C=C/c3cccnc3)[nH]c2cc1C,active: 0.58 µM,
CC(=O)Nc1ccc(N=C(C2=C(O)c3ccccc3C2=O)c2ccccc2)cc1,"inconclusive [cytotoxic, single point]",
O=C(CSc1nc2ccsc2c(=O)n1Cc1ccccc1)NCC1CCCO1 (stereo unspecified),inactive,
CC(C)CC(COCc1ccc(C(F)(F)F)cc1)N1CCN(C(=O)c2ccc(C(F)(F)F)cc2)CCC1=O (stereo unspecified),"inconclusive [cytotoxic, single point]",
CCOc1cc(S(=O)(=O)NCc2ccc(OC)cc2)c(OCC)cc1-n1cnnn1,active: 8.91 µM,
O=C(NCc1ccco1)C1CC(c2ccc(C(F)(F)F)cc2)=NO1 (stereo unspecified),"inconclusive [cytotoxic, partial curve]",
COc1ccc(CCNC(=O)CNS(=O)(=O)c2ccc(Cl)cc2)cc1,inactive,
N/C(=N\N=Cc1ccc2c(c1)OCO2)NN=Cc1ccc2c(c1)OCO2,"inconclusive [cytotoxic, single point]",
Nc1ccc2c(c1)-c1ccc(F)cc1C2=O,inactive,
O=C(NCc1ccc(F)cc1)c1ccc(CS(=O)(=O)c2ccc(Br)cc2)o1,inactive,
CC(C)N1C(=O)c2ccccc2NC(=O)C1C(=O)NCc1ccccc1 (stereo unspecified),inactive,
CC1CN(C(=O)CCN2C(=O)c3ccccc3C2=O)CC(C)O1 (stereo unspecified),inactive,
Cc1cccc(N2CCN(S(=O)(=O)c3cccc4nonc34)CC2C)c1 (stereo unspecified),inactive,
Cc1csc(NC(=O)NCC2CCCC(CNC(=O)Nc3nc(C)cs3)C2)n1 (stereo unspecified),inactive,
CCNc1nc(NCC)nc(-n2nc(C)cc2C)n1,active: 0.891 µM,
CCOC(=O)C1(Cc2ccc(OC)cc2)CCN(C(=O)c2cc3ccccc3[nH]2)CC1,"inconclusive [cytotoxic, partial curve, poor fit]",
COc1ccccc1C(=O)Nc1ccc(Oc2nnc(-c3ccc(C)cc3)c3ccccc23)cc1,inactive,
O=C(CSc1nnc(Cn2nnc3ccccc32)o1)N(Cc1ccc(F)cc1)c1ccccc1,"inconclusive [cytotoxic, full curve, poor fit]",
O=C(Nc1ccc(S(=O)(=O)NC2CCCCC2)cc1)c1ccc(Br)o1,"inconclusive [cytotoxic, single point]",
O=C(C(=Cc1ccc(F)cc1)C(=O)c1ccccc1)c1ccccc1,"inconclusive [cytotoxic, single point]",
O=C(NCc1ccc(Cl)c(Cl)c1)c1cc(C2CCCCN2C(=O)CCc2ccccc2)on1 (stereo unspecified),inactive,
